# Measured values: article PMC12040169 (PLOS Biology, 2025)
# Like-named read-outs stand apart in the source and are kept apart here. Some of the results follow.
# Tested on: T1, C. trachomatis L2/434/Bu expressing GFP (CTL2-GFP)
# T1 construct: L2/434/Bu GFP intracellular growth in HeLa cells
# Parameters: species or system HeLa; C. trachomatis total inclusion area by high-content imaging, normalised to DMSO
# Method in brief: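 Post-fluorescence-read fixation, DNA staining with Hoechst and high-content imaging; GFP inclusion area and number per well, and nuclei counts, used as proxies for bacterial growth and host viability.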
# [1] = total inclusion area; 28.5 h, 10 µM; inhibitor
Compound,% of control remaining [1],"% of control remaining (total inclusion area, 28.5 h, 10 µM, inhibitor)"
CCOC(=O)Cc1csc(SC(C)C(=O)N2CCCc3ccccc32)n1 (centres unmarked) [CBK304228],53.7714,
Oc1ccc2[nH]cc(CCNC(c3ccccc3)(c3ccccc3)c3ccccc3)c2c1 [CBK260891],72.0783,
COc1ccc(Nc2ncc(C(=O)NCCCN3CCCC3)c3ccccc23)cc1 [CBK291114],81.3278,
COc1ccc(C(=O)/C=C/Nc2ccc(S(=O)(=O)NC(=N)N)cc2)cc1 [CBK262277],50.7073,
Cc1onc(-c2ccccc2)c1C(=O)Nc1ccc(N2CCNCC2)c2ccccc12 [CBK038942T],88.5918,
Cn1cc(CCCC(=O)NC2CCCOC2)c2ccccc21 (centres unmarked) [CBK282486],131.864,
CCN(CC)C(=O)NC(c1ccccc1OC)c1nccn1C (centres unmarked) [CBK283803],82.886,
Cc1nn(Cc2ccccc2)c(C)c1CC(=O)NCCn1ccnc1 [CBK282095],103.543,
CN(C)CCN(C)c1cc(-c2cccc(-c3ccccc3)c2)ncn1 [CBK037763],44.6997,
CCn1cc(CN2CCCC(c3cc4cccnc4[nH]3)C2)c(C)n1 (centres unmarked) [CBK284701],82.0561,
CSCCCNC(=O)N1CCCCC1CO (centres unmarked) [CBK156163],96.6087,
COc1ccc(Nc2nc(-c3ccccc3)c(C)s2)c(OC)c1 [CBK131709],109.185,
COc1ccc(N(CCN2CCCCC2)S(=O)(=O)c2ccc(C)cc2)cc1 [CBK261131],105.124,
Cn1c(=O)n(C)c2cc(NC3=NS(=O)(=O)c4ccccc43)ccc21 [CBK270210],75.7471,
Cc1nc(SCCn2cccn2)c2c(=O)n(C)c(=O)n(CC(C)C)c2n1 [CBK306321],94.0677,
CCc1cc2c(=O)c(-c3cnn(-c4ccccc4)c3)c(C(F)(F)F)oc2c(CN(C)C)c1O [CBK264530],113.898,
O=C(O)CCC(=O)NNC(=O)c1ccccc1[N+](=O)[O-] [CBK261079],93.9542,
O=C(c1cc(S(=O)(=O)N2CCOCC2)ccc1Cl)N1CCCCC1CO (centres unmarked) [CBK304579],41.6527,
CCN(CC)CCCNC(=O)N1CCCC(CO)C1 (centres unmarked) [CBK156061],83.3022,
Cc1cc(C(=O)NC(Cc2c[nH]c3ccccc23)C(=O)O)c(C)o1 (centres unmarked) [CBK286560],103.488,
O=C(O)c1cccc(NCN2C(=O)c3ccc([N+](=O)[O-])cc3C2=O)c1 [CBK261100],85.7747,
O=C(C(OCC(F)(F)F)c1ccccc1)N1CCN(c2nccs2)CC1 (centres unmarked) [CBK298299],58.711,
CCc1ccc(/C=C2/SC(=S)N(CCC(=O)O)C2=O)cc1 [CBK263390],102.074,
CN(C)Cc1cnn(-c2ccc(Oc3ccccc3)cc2)n1 [CBK112865],93.182,
O=S1(=O)Cc2ccccc2C(Oc2cncc(N3CCNCC3)n2)C1 (centres unmarked) [CBK172344T],98.436,

Compound,% of control remaining [1],"% of control remaining (total inclusion area, 28.5 h, 10 µM, inhibitor)"
COC(=O)c1sccc1OCc1nnc(-c2ccc(Cl)c(Cl)c2)o1 [CBK067742],82.1558,
Cc1sc2ncn(CC(=O)NCCCN3CCCCC3)c(=O)c2c1C [CBK305831],96.3706,
COc1ccccc1CCCNC(=O)CC1CCCCN1C (centres unmarked) [CBK282694],93.8882,
C[C@@H]1CN(C(=O)OCCc2ccsc2)C[C@H](C)O1 [CBK200417],81.7013,
CC(C)NC(=S)N1CC[C@@]2(NC(N)=O)N=C(N)O[C@H]2C1 [CBK010049],80.283,
Cc1cc(C)n(CC2CN(C(C)C(=O)NCc3ccco3)CCO2)n1 (centres unmarked) [CBK305351],54.089,
O=C(COc1ccc(Br)cc1)Nc1ccc(CN2CCCCC2)cc1 [CBK266181],103.836,
COc1ccc(C2NCCc3c2[nH]c2ccccc32)cc1CN1CCN(c2ccc(F)cc2)CC1 (centres unmarked) [CBK264178C],68.4347,
CN1CCN(NC(=O)CSc2ccccc2)CC1 [CBK268142],93.1966,
CC1SC(c2cc3ccccc3o2)N(c2ccc(F)cc2F)C1=O (centres unmarked) [CBK006917],106.813,
Cc1ccc(Cl)cc1NC(=O)c1cc(NC(=O)C2CCCCC2C(=O)O)ccc1N1CCCCC1 (centres unmarked) [CBK268371],81.8451,
COc1ccc(C(=O)N2CCC3(CCCN(C(=O)c4c(F)cccc4F)C3)C2)cc1OC (centres unmarked) [CBK131669],77.6376,
O=C(Nc1nnc(-c2ccncc2)o1)c1ccc(F)cc1 [CBK287431],91.1806,
COc1cc(Nc2cncc(-c3ccc(O)cc3)n2)c(Cl)cc1C(=O)NCC(F)(F)F [CBK126470],74.8924,
Cn1nc(-c2ccc(S(=O)(=O)Nc3nnc(C(F)(F)F)s3)s2)cc1C(F)(F)F [CBK062017],84.2271,
O=C(NC1CCCC1)c1ccc2c(c1)OCO2 [CBK002177],100.95,
COc1ccc(C(C)C)cc1-c1nccnc1NCCc1c[nH]c2ccccc12 [CBK036650],100.767,
CC(C)c1csc(CNC(=O)NC2CCCN(c3ccn(C)n3)C2=O)n1 (centres unmarked) [CBK304447],42.44,
O=C(C1=C(O)C(=O)N(CCCn2ccnc2)C1c1cccc([N+](=O)[O-])c1)c1ccc(F)cc1 (centres unmarked) [CBK264571],129.008,
O=C(CCC1CCCC1)n1ccn(-c2ccc3c(c2)OCO3)c1=O [CBK106631],95.7718,
Cc1[nH]c(=O)c(S(=O)(=O)c2ccccc2)c(C)c1Cl [CBK018736],78.4366,
CC(=O)Nc1ccc(S(=O)(=O)N2CC[C@H](c3nc4ccccc4o3)C2)cc1 [CBK289373],74.4145,
C=CCN1C(=O)CC2(C1=O)C(=O)N(Cc1nc(-c3ccc(Cl)cc3)no1)c1ccc(OC)cc12 (centres unmarked) [CBK075692],89.415,
Cc1cc(C)c2nc(-c3cccnc3)cc(C(=O)N3CCN(S(=O)(=O)c4ccc(F)cc4)CC3)c2c1 [CBK267726],111.422,
COC(=O)c1ccc(-c2cc3ccccc3o2)nc1 [CBK149228],,100.735
